Test results: the RNAGym collection of RNA variant scans (doi:10.1093/nar/gkz1192)
The source gives no read counts; variants with many changes may rest on few reads.

B1: CPEB3 Ribozyme (parent)
chain: UAACAGGGGGCCACAGCAGAAGCGUUCACGUCGCAGCCCCUGUCAGAUUCUGGUGAAUCUGCGAAUUCUGCUGUAUAUCUC

Variants of: B1
Experiment: self-cleavage, relative activity (ratio to wild type); higher = more cleavage; in vitro, sequencing
Summary of the method: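 After error-prone PCR and barcoding, CPEB3 ribozyme mutant libraries were transcribed with T7 RNA polymerase at 37°C for 5 hours, then given 15 min with DNase I before an EDTA stop, and they cleaved during both steps. Reverse transcription with template switching preceded Illumina sequencing. Relative activity divides a variant's cleaved/total read fraction by the unmutated ribozyme's. At least 5 reads were required per variant, and three batches were averaged.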

Variant | self-cleavage
UAACAGGGGGCCCCAGCAGAAGCGUUCACGCCGCAGCCCCUGUCAGAUUCUGGUGAAUCUGCGGAUCCUGCUGUAUAUCUC | 0.1
UAACAGGGGGCCCCAGCAGAAGCGUUCACGCUGCAGCCCCUGACAGAUUCUGGUGAAUCUGCGGAUUCUGCUGUAUAUCUC | 0.16
UAACAGGGGGCCCCAGCAGAAGCGUUCACGCCGCAGCCCCCGCCAGAUUCUGGUGAAUCUGCGAAUUCUGCUGUAUAUCUC | 0.08
UAACAGGGGGCCCCAGCAGAAGCGUUCACGUCGCAGCCCCAGCCAGAUUCUGGUGAAUCUGCGAAUUCUGCUGUAUGUCUC | 0.15
UAACAGGGGGCCCCAGCAGAAGCGUUCACGUCGCAGCCCCCGUCAGAUUCUGGUGUAUCUGCGAAUUCCGCUGUAUAUCUC | 0.3
UAACAGGGGGCCCCAGCAGAAGCGUUCACGUCGCAGCCCCCGUUAGAUUCUGGUGAAUCAGCGAAUUCUGCUGUAUAUCUC | 0.17
UAACAGGGGGCCCCAGCAGAAGCGUUCACGUCGCAGCCCCCGUCAGAUUCUGGUGAAUCUGCGAAUUCUGAUGUAUAUCUC | 0.11
UAACAGGGGGCCCCAGCAGAAGCGUUCACGUCGCAGCCCCCGUCAGAUUCGGGUGAAUCUGCGGAUCCUGCUGUAUAUCUC | 0.23
UAACAGGGGGCCCCAGCAGAAGCGUUCACGUCGCAGCCCCUGCCAGCUUCUGGUGAAUCUGCGAAUUCUGCAGUGUAUCUC | 0.03
UAACAGGGGGCCCCAGCAGAAGCGUUCACGUCGCAGCCCCUGCCAGGUUCUGGUGAAUCUGCGAAUUCUGCUGUAUAUCUC | 0.42
UAACAGGGGGCCCCAGCAGAAGCGUUCACGUCGCAGCCCCUGCCAGAUUCUGGUGGAUCUGCGAAUUCUGCUAUAUAUCUC | 0.59
UAACAGGGGGCCCCAGCAGAAGCGUUCACGUCGCAGCCCCUGCCAGAUUCUGGUGAUUCUGCGAAUUCUGCUGUAUAUCUC | 0.39
UAACAGGGGGCCCCAGCAGAAGCGUUCACGUCGCAGCCCCUGGCAGGUUCUGGUGAAUCUGCGAAUUCUGCUGUAUAUCUC | 0.33
UAACAGGGGGCCCCAGCAGAAGCGUUCACGUCGCAGCCCCUGGCAGAUUCUGGUGAAUCCGCGAAUUCUGCUGUAUAUUUC | 0.27
UAACAGGGGGCCCCAGCAGAAGCGUUCACGUCGCAGCCCCUGUCAGAUCCUGGUGGAUCUGCGAAUUCCGCUGUAUAACUC | 0.44
UAACAGGGGGCCCCAGCAGAAGCGUUCACGUCGCAGCCCCUGUCAGAUUCAGGUGAAUCUGCGAAUUCCGCUGUAUAUCUC | 0.62
UAACAGGGGGCCCCAGCAGAAGCGUUCACGUCGCAGCCCCUGUCAGAUUCAGGUGAAUCUGCGAAUUCUGCUGCAUAUCUC | 1.04

Variant | self-cleavage
UAACAGGGGGCCCCAGCAGAAGCGUUCACGUCGCAGCCCCUGUCAGAUUCUGGCGAAUCUGCGAAUUCUGCUGUAAAUCUC | 1.19
UAACAGGGGGCCCCAGCAGAAGCGUUCACGUCGCAGCCCCUGUCAGAUUCUGGUGAAUCCGUGAACUCUGCUGUAUAUCUC | 0.14
UAACAGGGGGCCCCAGCAGAAGCGUUCACGUCGCAGCCCCUGUCAGAUUCUGGUGAAUCUGCGAAUUCCGCUGCAUAUCUC | 0.64
UAACAGGGGGCCGCCGCAGAAGCGUUCACGUCGCAGCCCCUGUCAGAUUCUGGUUAAUCUGCGAAUUCUGCUGUAUAUCCC | 0.53
UAACAGGGGGCCGCCGCAGAAGCGAUCACGUCGCAGCCCCAGUCGGAUUCUGGUGAAUCUGCGAAUUCUGCUGUAUAUCUC | 0.47
UAACAGGGGGCCGCCGCAGAAGCGUUCACGACGCAGCCCCUGUCAGAUUCUGGUGAAUCUGCGAAUUCUGCUGUAUAUCUC | 0.34
UAACAGGGGGCCGCCGCAGAAGCGUUCACGUCGCAGCCCCUGUCAGAUCCGGGUGAAUCUGCAAAUUCCGCUGUAUAACUC | 0.34
UAACAGGGGGCCGCCGCAGAAGCGUUCACGUCGCAGCCCCUGUCAGAUUCAGGUGAAUCCGCGAAUCCUGCUGUAUAUCUC | 0.28
UAACAGGGGGCCGCGGCUGAAGCGUUCACGUCGCAGCCCCUGUCAGAUUCUGGUGAAUCUGCGAAUUCUGCUGUAUAUCUC | 0.3
UAACAGGGGGCCGCGGCUGGAGCGAUCACGUCGCAGCCCCUGUCAGAUUCUGGUGAAUCUGCGAAUCCUGCUGUAUAUAUC | 0
UAACAGGGGGCCGCGGCUGAAGCGUUCACGUCGCAGCCCCUGCCGGAUUCUGGUGAAUCUGCGAAUUCUGCUGUAUAUCAC | 0.03
UAACAGGGGGCCGCGGCAGAAGCGUUCGCGUCGCAGCCCCUGUCAGAUUCUGGUGAAUCUGCGAAUUCAGCUGUAUAUCUC | 0.07
UAACAGGGGGCCGCGGCAGAAGCGUUCACGUCGCGGCCCCUGUCAGAUUCUGGUGAAUCUGCGAAUUCUGCUGUAUAUCUC | 0.63
UAACAGGGGGCCGCGGCAGAAGCGUUCACGUCGCUGCCCCUGUCAGAUUUUGGUCUAUCUGCGAAUUCUGCUGUAUAUCAC | 0.04
UAACAGGGGGCCGCGGCAGAAGCGUUCACGUCGCAGCCCCUGUCAGUUUCUGGUGAAUCUGCGAAUUCUGCUGUAUAUCUC | 0.45
UAACAGGGGGCCGCGGCAGAAGCGUUCACGUCGCAGCCCCUGUCAGAUUCUGGUGUAUCUGCGAAUUCUAGUGUGUAUCUC | 0.25
UAACAGGGGGCCGCGGCAGAAGCGUUCACGUCGCAGCCCUUGUCAGAUUCUGGUGAAUCUGCGAAUUCUGCUGUAUAUCUC | 0.15
